PMC4336329 (PLoS ONE, 2015)
The whole screen tested about 310,000 compounds, of which about 14,000 (4.5%) showed an effect of 50% or more. Effects have a minus sign here. This is one part of the list.

Target: human ether-à-go-go-related gene (hERG) potassium channel (human, UniProt Q12809)
Assay: primary screen, population patch clamp on CHO cells stably expressing hERG
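Note: peak tail current of the secondary pulse compared with the same well before compound.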

Sequence of human ether-à-go-go-related gene (hERG) potassium channel (Q12809 whole entry, looked up): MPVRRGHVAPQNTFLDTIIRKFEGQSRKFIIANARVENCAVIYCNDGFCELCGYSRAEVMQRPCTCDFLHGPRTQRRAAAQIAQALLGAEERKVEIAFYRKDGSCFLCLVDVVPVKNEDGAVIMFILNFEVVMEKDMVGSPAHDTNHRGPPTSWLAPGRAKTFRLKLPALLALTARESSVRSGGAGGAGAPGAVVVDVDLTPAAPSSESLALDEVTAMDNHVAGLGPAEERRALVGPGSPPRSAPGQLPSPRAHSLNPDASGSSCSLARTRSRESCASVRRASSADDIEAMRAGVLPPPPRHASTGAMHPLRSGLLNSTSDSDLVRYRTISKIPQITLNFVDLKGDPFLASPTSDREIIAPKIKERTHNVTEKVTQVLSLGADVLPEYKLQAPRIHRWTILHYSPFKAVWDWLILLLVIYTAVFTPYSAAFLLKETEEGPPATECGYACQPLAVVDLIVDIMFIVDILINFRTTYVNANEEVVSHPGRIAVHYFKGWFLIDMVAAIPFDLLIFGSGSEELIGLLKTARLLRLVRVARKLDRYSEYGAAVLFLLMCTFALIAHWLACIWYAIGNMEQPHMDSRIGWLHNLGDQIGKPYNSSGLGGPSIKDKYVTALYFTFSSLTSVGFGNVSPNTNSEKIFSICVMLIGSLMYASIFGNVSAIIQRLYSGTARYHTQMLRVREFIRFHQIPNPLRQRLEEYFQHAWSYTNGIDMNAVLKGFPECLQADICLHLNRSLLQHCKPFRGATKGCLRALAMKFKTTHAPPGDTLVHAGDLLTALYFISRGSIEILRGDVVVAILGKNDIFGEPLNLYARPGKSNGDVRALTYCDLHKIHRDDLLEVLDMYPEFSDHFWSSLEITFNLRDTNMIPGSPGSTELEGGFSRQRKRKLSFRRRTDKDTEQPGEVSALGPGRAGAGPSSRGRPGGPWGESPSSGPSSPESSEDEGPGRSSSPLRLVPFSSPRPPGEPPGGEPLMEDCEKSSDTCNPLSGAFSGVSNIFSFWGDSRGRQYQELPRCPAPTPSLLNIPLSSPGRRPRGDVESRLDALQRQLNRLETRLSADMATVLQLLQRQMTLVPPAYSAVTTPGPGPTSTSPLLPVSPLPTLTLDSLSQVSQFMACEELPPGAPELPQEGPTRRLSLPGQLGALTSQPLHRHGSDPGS

Row | Compound | hERG current change (%, negative = inhibition) at 10uM [%]
1 | CC1CN(c2nc3ccccc3nc2C(C#N)C(=O)OC2CCCCC2)CC(C)O1 (centres unmarked) | -3.01
2 | CCOC(=O)c1c(-c2ccc(F)cc2)csc1NC(=O)CCN1C(=O)c2ccccc2C1=O | 16
3 | CC(C)NC(=O)CC(=O)N/N=C/c1c(F)cccc1Cl | -1.51
4 | Cn1cccc1C1NC(=O)c2c(sc3c2CCC(C(C)(C)C)C3)N1 (centres unmarked) | 9.24
5 | COC(=O)c1cc(C(=O)OC)cc(N2C(=O)CC(NNC(=O)c3ccc(C)cc3)C2=O)c1 (centres unmarked) | -11.5
6 | Cc1nc2scc(-c3cccs3)c2c(=O)[nH]1 | 15.3
7 | O=C(CSc1n[nH]c(-c2cccnc2)n1)Nc1ccccc1 | -0.953
8 | Cc1cc(C)nc(NC(=S)NC(=O)c2ccccc2F)n1 | -28.1
9 | S=C1NCCc2ccc(Cl)cc2C1c1ccccc1 (centres unmarked) | -38.4
10 | CCC(Oc1ccccc1)C(=O)Nc1ccc(S(=O)(=O)Nc2ncccn2)cc1 (centres unmarked) | 17.3
11 | O=C(CSc1nnc(NC(=O)c2ccco2)s1)Nc1ccc(F)cc1 | 24.9
12 | O=C(c1cccc(F)c1)N1CCCC(C(=O)N2CCN(c3ccccc3)CC2)C1 (centres unmarked) | -3.27
13 | Cc1cnc(NC(=O)CCN2C(=O)C3CCCCC3C2=O)s1 (centres unmarked) | 24.3
14 | Cn1c(=NC(=O)c2cccc([N+](=O)[O-])c2)sc2ccccc21 | -4.18
15 | C1CCNCC1.N#CC1=C(N)Oc2cc(O)ccc2C1c1ccc2c(c1)OCO2 (centres unmarked) | 2.47
16 | CCS(=O)(=O)Nc1ccc(C2=NN(C(=O)c3ccco3)C(c3cccc(F)c3)C2)cc1 (centres unmarked) | -32.4
17 | O=C(CC(C(=O)N1CCc2ccccc21)n1ccnc1)NCC1CCCO1 (centres unmarked) | 8.9
18 | O=C(CSc1ccc([N+](=O)[O-])cc1)NCC1CCCCC1 | -15
19 | O=C(NCCN1CCN(c2ccccc2Cl)CC1)Nc1ccccc1 | -34.1
20 | O=C1OC(C(=O)O)Cc2ccccc21 (centres unmarked) | 5.21
21 | O=C(NCc1ccccc1)c1cc2ccc(O)cc2oc1=O | 25
22 | CCS(=O)(=O)C1=NSC2=NC(=O)/C(=C\c3ccc(OC(=O)c4ccco4)c(OC)c3)C(=N)N21 | 8.51

Row | Compound | hERG current change (%, negative = inhibition) at 10uM [%]
23 | O=C(C1CC1)N1CCc2cc(Br)cc(S(=O)(=O)NCc3ccc4c(c3)OCO4)c21 | -64.8
24 | Cl.O=[N+]([O-])c1ccc(CN2CCN(c3ccc4ccccc4n3)CC2)cc1 | -12.1
25 | O=C(C[n+]1ccc(C(=O)NCc2ccccc2)cc1)c1ccc2c(c1)OCCO2.[Br-] | 12.9
26 | O=C(Nc1cccc(C(F)(F)F)c1)c1cc2c(s1)-c1ccccc1OC2 | -2.48
27 | CCOC(=O)CN1C(=O)CCSc2ccc(Cl)cc21 | 36.8
28 | COC(=O)c1ccc(N)c(CS(=O)(=O)c2ccc(Cl)cc2)c1 | -2.43
29 | Cc1ccc(C)c(OCCC(=O)OCC(=O)NCc2ccc(F)cc2)c1 | -14.4
30 | O=C(NCC1OCCc2ccccc21)c1ccc(NC(=O)c2cccc(Br)c2)cc1 (centres unmarked) | 2.42
31 | Cc1[nH]c2ccc(C(=O)Nc3ccncc3)cc2c1C | -28.5
32 | O=C(COC(=O)CNS(=O)(=O)c1ccc(F)c(F)c1F)NC1CC1 | 11.3
33 | O=C(O)/C=C/C(=O)NCCc1ccccc1 | 61.4
34 | Cc1ccc([N+](=O)[O-])cc1S(=O)(=O)Nc1ccc(C(=O)NCC2CCCO2)cc1 (centres unmarked) | -5.12
35 | CCCC(C)NC(=O)c1cc(Cl)ccc1OC (centres unmarked) | -12.4
36 | CCOC(=O)c1ccc(NC(=O)c2nc[nH]c2C(=O)NCCCCNC(=O)c2[nH]cnc2C(=O)Nc2ccc(C(=O)OCC)cc2)cc1 | 22.9
37 | CC(C)CCNC(=O)c1cc2c(=O)[nH]c3ccccc3c2s1 | 21.7
38 | CS(=O)(=O)NCCCc1ccccc1 | 16.9
39 | Cc1cc(C)n2nc(C(=O)Nc3cccc(S(=O)(=O)N(C)c4ccccc4)c3)nc2n1 | -68.3
40 | Nc1ccn(Cc2ccc(F)cc2)n1 | 28.3
41 | O=C(NCCc1cccs1)C1CC1 | 5.61
42 | Cc1c(-c2cccc(Cl)c2)nc2ccccc2c1C(=O)NC1CC1 | -60.6
43 | O=C(CN1CCC(Cc2ccccc2)CC1)NC(=O)NCc1ccco1 | -22
44 | CC(C)OC(=O)c1cc(NC(=O)c2nn(C)cc2Br)cc(C(=O)OC(C)C)c1 | 15.3
